PubChem BioAssay (NCATS)
Where “and” joins values, the source holds several entries; their conditions need not be identical. Equal entries are not always repeated. Inconclusive results, whose numbers are uncertain, are shown with a selection of clear calls. For some of these results: Potencies beside an inconclusive call are fits to weak or partial responses and may not hold up. Calls of active or inactive are those of the source. Unless noted, the call rests on the fitted dose curve; in most records, active means well fitted curve in the direction sought with a large enough effect; inconclusive means small, poorly fitted or top-dose-only effect, or another doubt; inactive means no such curve, though single readings can be large; an effect the other way counts as inactive or inconclusive.

Key:
[1] = Primary qHTS for inhibitors of nuclear receptor binding SET domain protein 2 (NSD2) in an isogenic RCH-ACV NSD2 p.E1099K mutant (9B) (AID 1645876); further: on the % scale 0 is the no-effect control and ±100 the full control effect; nearly all actives have a fitted effect of over 70% in size
[2] = Primary redox qHTS assay for identification of artifact compounds. (AID 1845223); settings: Amplex Red/HRP redox cycling with DTT, fluorescence; redox activity (% of DA3003): at 53.8 µM (top of the series);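 further: 0% = DMSO and 100% = reference compound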
Outline: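 Amplex Red (25 uM) and HRP (250 mU/mL) in HBSS, with compounds for 15 min, then 250 uM DTT for 30 min, room temperature, dark. Fluorescence 525/598 nm read; normalized to DMSO and 10 uM DA3003; Hill fit.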

[3] = system: CRL-7250; experiment: Cytotoxic Profiling of Annotated Libraries Using Quantitative High-Throughput Screening (AID 1296008); settings: Five cell lines viability, CellTiter-Glo ATP luminescence, 48-72 h; max response: stronger effect = lower value; further: nearly all actives have a fitted effect of over 60% in size; further: potency means the concentration at half of the fitted maximal effect; on max response: on the % scale 0 is the no-effect control and ±100 the full control effect
Outline: (§1)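 Compounds were pin-transferred onto cells and incubated 48 or 72 hr at 37 degree Celsius, 95% humidity. CellTiter-Glo was added, plates sat 10 min at room temperature, then ATP-coupled luminescence was imaged as the viability read-out.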

[4] = biological target: 3',5'-cyclic-AMP phosphodiesterase 4B (Homo sapiens) (UniProt Q07343); experiment: qHTS Assay for Inhibitors of PDE-IV (AID 607; active means well fitted activation curve with a large enough effect in the main read-out, with a control signal flat, not every such curve was filed as active; inconclusive means small, poorly fitted or top-dose-only effect, or effect the other way, or a change in a side signal; further: potency means the concentration at half of the fitted maximal effect); settings: HEK293 ACTOne CNG channel cells, membrane potential fluorescence; activation (PDE inhibition): at 22.9 µM (top of the series)
UniProt Q07343, sequence (Q07343 whole entry, looked up): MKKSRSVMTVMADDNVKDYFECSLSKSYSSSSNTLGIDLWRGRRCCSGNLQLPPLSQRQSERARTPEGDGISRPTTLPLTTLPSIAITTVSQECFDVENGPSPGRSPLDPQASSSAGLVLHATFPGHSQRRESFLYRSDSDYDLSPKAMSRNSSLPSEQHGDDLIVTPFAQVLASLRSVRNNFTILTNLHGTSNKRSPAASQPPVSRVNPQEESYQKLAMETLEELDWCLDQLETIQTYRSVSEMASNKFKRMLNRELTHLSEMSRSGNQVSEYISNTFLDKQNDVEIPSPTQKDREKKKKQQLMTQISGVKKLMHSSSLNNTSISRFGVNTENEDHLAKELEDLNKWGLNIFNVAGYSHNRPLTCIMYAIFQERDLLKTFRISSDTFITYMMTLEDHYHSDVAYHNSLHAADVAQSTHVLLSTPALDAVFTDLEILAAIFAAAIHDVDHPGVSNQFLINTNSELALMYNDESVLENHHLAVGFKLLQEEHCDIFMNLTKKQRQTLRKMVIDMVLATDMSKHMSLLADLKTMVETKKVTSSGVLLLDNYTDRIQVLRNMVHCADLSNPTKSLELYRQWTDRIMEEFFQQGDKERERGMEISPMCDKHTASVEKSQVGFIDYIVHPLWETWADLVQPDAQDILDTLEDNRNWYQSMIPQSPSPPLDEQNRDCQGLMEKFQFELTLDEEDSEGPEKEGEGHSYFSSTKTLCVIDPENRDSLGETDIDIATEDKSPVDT
Outline: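 The readout is membrane depolarisation from a cAMP-sensing CNG channel, detected with a potential dye at ex 535/em 590. Cells were HEK293-derived (endogenous PDE-IV) at 1000 cells/well, titrated up to 22.9 uM final.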

[5] = biological target: Cytochrome P450 2C9 (Homo sapiens) (UniProt P11712); experiment: qHTS Assay for Inhibitors and Substrates of Cytochrome P450 2C9 (AID 883); further: potency means the concentration at half of the fitted maximal effect; nearly all actives have a fitted effect of over 60% in size
UniProt P11712, sequence (P11712 whole entry, looked up): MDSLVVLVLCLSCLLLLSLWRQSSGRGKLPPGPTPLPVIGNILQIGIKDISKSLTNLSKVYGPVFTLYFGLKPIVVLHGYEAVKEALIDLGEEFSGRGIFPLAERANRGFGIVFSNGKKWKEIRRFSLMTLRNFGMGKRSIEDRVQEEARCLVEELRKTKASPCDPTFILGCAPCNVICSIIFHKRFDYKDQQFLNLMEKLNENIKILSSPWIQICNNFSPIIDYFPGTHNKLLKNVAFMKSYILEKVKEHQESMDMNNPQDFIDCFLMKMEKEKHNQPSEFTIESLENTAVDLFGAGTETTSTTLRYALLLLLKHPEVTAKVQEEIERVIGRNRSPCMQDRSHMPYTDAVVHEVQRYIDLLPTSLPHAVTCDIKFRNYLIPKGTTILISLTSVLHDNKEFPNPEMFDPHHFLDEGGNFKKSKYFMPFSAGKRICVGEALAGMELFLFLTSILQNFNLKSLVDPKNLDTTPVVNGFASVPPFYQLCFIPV
Outline: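 A luminogenic readout tracked human CYP2C9 (10nM) converting deoxyluciferin (100uM, at KM) in 25mM KPO4 during 60 min at 37C with regenerated NADPH. Values normalized to 57uM sulphaphenazole as complete inhibition.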

[6] = P-glycoprotein substrates identified in KB-8-5-11 adenocarcinoma cell line, qHTS therapeutic library screen (AID 1346987); further: potency means the concentration at half of the fitted maximal effect; nearly all actives have a fitted effect of over 65% in size
Outline: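 Steps: plate 500 KB-8-5-11 cells/well in DMEM + 10% FCS (colchicine removed); pin compounds in dose-response; incubate 72 h, 37 degree C, 5% CO2; add CellTiter-Glo, 5 min; read luminescence.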

[7] = qHTS of pediatric cancer cell lines to identify multiple opportunities for drug repurposing: Primary screen for TC32 cells (AID 1347089); further: on the % scale 0 is the no-effect control and ±100 the full control effect; nearly all actives have a fitted effect of over 60% in size
Outline: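 In the primary qHTS, MIPE compounds were tested at 11 concentrations (0.78 nM to 46 µM) and NPC compounds at 8 (0.59 nM to 46 µM) on TC32 cells for 48 h. CellTiter-Glo luminescence gave viability.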

[8] = qHTS of pediatric cancer cell lines to identify multiple opportunities for drug repurposing: Primary screen for SK-N-MC cells (AID 1347093); settings: SK-N-MC viability, CellTiter-Glo luminescence, 48 h; activity change, negative = cytotoxic: at 46 µM (top of the series); further: potency means the concentration at half of the fitted maximal effect
Outline: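 Metabolically active cells were quantified by ATP-dependent luminescence (CellTiter-Glo, 15 min at room temperature) following 48 h treatment. Cells had been plated at 500-1,000 per well and settled for 5 h beforehand.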

[9] = qHTS of pediatric cancer cell lines to identify multiple opportunities for drug repurposing: Primary screen for SK-N-SH cells (AID 1347098); further: potency means the concentration at half of the fitted maximal effect; nearly all actives have a fitted effect of over 65% in size
Outline: (§2)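 Cells (500-1,000/well) rested 5 h, then received compounds for 48 h; metabolically active cells were measured by CellTiter-Glo luminescence. Final concentrations spanned up to 46 µM (MIPE, 11-point) or 0.59 nM-46 µM (NPC, 8-point) in primary screens, 11-point in follow-ups.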

[10] = qHTS of pediatric cancer cell lines to identify multiple opportunities for drug repurposing: Primary screen for OHS-50 cells (AID 1347103); further: potency means the concentration at half of the fitted maximal effect; nearly all actives have a fitted effect of over 40% in size
Outline: as §2

[11] = Primary qHTS for small molecule stabilizers of the endoplasmic reticulum resident proteome: Secreted ER Calcium Modulated Protein (SERCaMP) assay (AID 1508630); settings: SH-SY5Y GLuc-SERCaMP (Gaussia luciferase released on ER calcium loss) secretion, thapsigargin, luminescence; activity change, negative = inhibition: at 38.4 µM (top of the series) unless noted; further: potency means the concentration at half of the fitted maximal effect
Outline: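 GLuc-SERCaMP-expressing SH-SY5Y cells, pretreated 16 h with compound, are challenged with thapsigargin to empty ER calcium stores; after 4 h, coelenterazine is added directly to the medium and luminescence is imaged.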

[12] = A High-Content qHTS Against Drug Library for the Identification of Small Molecules that Inhibit DYT1 Early Onset Primary Dystonia-Associated Cell Pathology (AID 1645839; calls by dose curve; further: potency means the concentration at half of the fitted maximal effect)
Outline: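 Readout: %pathology, the punctate EGFP-TorsinA distribution from imaging, as the primary channel and cell count as the toxicity counterscreen. HEK293 Flp-In cells expressing delE TorsinA were induced with tetracycline and treated with compound for 48 h.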

[13] = Primary qHTS for inhibitors of nuclear receptor binding SET domain protein 2 (NSD2) in an RCH-ACV wild type WT cells (2C) (AID 1645877); settings: activity change, negative = cell killing: at 44.9 µM (top of the series) unless noted; further: potency means the concentration at half of the fitted maximal effect; nearly all actives have a fitted effect of over 70% in size
[14] = system: HEK293; experiment: Cytotoxic Profiling of Annotated Libraries Using Quantitative High-Throughput Screening (AID 1296008); settings: Five cell lines viability, CellTiter-Glo ATP luminescence, 48-72 h; max response: stronger effect = lower value; further: nearly all actives have a fitted effect of over 60% in size; further: potency means the concentration at half of the fitted maximal effect; on max response: on the % scale 0 is the no-effect control and ±100 the full control effect
Outline: as §1

[15] = system: CASKI; experiment: Primary qHTS to identify gynecologic anti-cancer compounds using libraries of approved drugs and bioactive compounds (AID 1345084); settings: Gynecologic cancer cell panel viability, ATPlite luminescence, 48 h; series mostly up to 57.5 µM; further: nearly all actives have a fitted effect of over 55% in size; further: potency means the concentration at half of the fitted maximal effect; on activity change, negative = cytotoxicity: on the % scale 0 is the no-effect control and ±100 the full control effect
Outline: (§3)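 Five-concentration response, 48 h; readout is ATP-driven luciferase luminescence.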

[16] = system: Hek293T; experiment: as above; settings: Gynecologic cancer cell panel viability, ATPlite luminescence, 48 h, control line for the selectivity index; activity change, negative = cytotoxicity: at 57.5 µM (top of the series) unless noted
Outline: as §3

[17] = system: OV90; experiment: as above; settings: Gynecologic cancer cell panel viability, ATPlite luminescence, 48 h; series mostly up to 57.5 µM
Outline: as §3

[18] = system: MKL-1; experiment: qHTS assay to identify novel small-molecules to repurpose for Merkel cell carcinoma treatment (AID 1296009); settings: MCC and control cell lines, CellTiter-Glo viability, 72 h; activity change, negative = cytotoxicity: at 46 µM (top of the series)
Outline: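 qHTS format: cells treated with library compounds in DMSO across 8 (NPC) or 11 (MIPE) concentrations. Readout after 72 hr at 37 degree celsius was CellTiter-Glo luminescence.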

[19] = qHTS to identify inhibitors of the type 1 interferon - major histocompatibility complex class I in skeletal muscle: primary screen against the NCATS Mechanism Interrogation Plate v5.0 (MIPE) Libary (AID 1347411); settings: iHSKM cells + IFN-b, HiBiT-tagged MHC-I luminescence, 24 h; activity change, negative = inhibition: at 45.8 µM (top of the series);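 further: plate controls were vehicle for no effect and reference inhibitor for full effect; nearly all actives have a fitted effect of over 65% in size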
Outline: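 Luminescence from HiBiT-tagged endogenous HLA-B*08:01 served as the MHC class I read-out. CRISPR-engineered C25cl48 human myoblasts received 4.0 ng/ml IFN-beta plus compound for 24 hrs, with an 11-point, 1:3 series topping at 46 uM final.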

[20] = biological target: Glutathione peroxidase 1 (Homo sapiens) (UniProt P07203); experiment: Primary qHTS Assay for Inhibitors of Recombinant Selenoprotein Glutathione Peroxidase 1 (GPX1) (AID 1845191); settings: activity, negative = inhibition: at 48.8 µM (top of the series); further: potency means the concentration at half of the fitted maximal effect; nearly all actives have a fitted effect of over 65% in size
UniProt P07203, sequence (P07203 whole entry, looked up): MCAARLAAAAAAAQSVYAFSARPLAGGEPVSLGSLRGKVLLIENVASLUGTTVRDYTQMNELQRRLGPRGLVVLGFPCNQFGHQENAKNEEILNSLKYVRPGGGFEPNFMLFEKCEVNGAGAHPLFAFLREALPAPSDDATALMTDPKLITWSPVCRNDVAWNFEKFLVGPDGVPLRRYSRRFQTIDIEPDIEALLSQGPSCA
Outline: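 Recombinant GPX1 (10 nM final) was preincubated with compound for 30 min at room temperature, then reacted with 1 mM GSH, 0.5 mM CHP, 0.5 mM NADPH and 100 nM glutathione reductase; NADPH fluorescence (340/450 nm) was read at 0 and 15 min.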

[21] = Primary fluorescence-based thiol-reactive (MSTI) qHTS assay for identification of artifact compounds. (AID 1845221)
Outline: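 In PBS pH 7.4 with 2% DMSO, each compound met 4 uM MSTI for one hour at ambient temperature, shielded from light, before fluorescence detection.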
Tags describe the fitted curve by direction and shape.

SMILES: Cc1oc(S(=O)(=O)N2CCCCC2)cc1NC(=O)Nc1ccccc1
- Potency [1]: inactive
- Potency [2]: inactive
- outcome [3]: inactive

SMILES: C[C@@H](C1=C(CCN(C)C)Cc2ccccc21)c1ccccn1
- Potency [4]: inconclusive: 9.51 µM [activator, partial curve, poor fit]
- Potency [5]: active: 0.501 µM
- Potency [6]: inconclusive: 20.6 µM [inhibitor, single point]
- Potency [7]: inactive
- Potency [8]: inconclusive: 29.9 µM [cytotoxic, partial curve, poor fit]
- Potency [9]: inconclusive: 43.3 µM [cytotoxic, single point]
- Potency [10]: inconclusive: 24.6 µM [cytotoxic, single point]
- Potency [11]: inconclusive: 28.2 µM [inhibitor, single point] and inconclusive: 22.4 µM [inhibitor, single point]
- Potency [12]: inconclusive: 15.8 µM [inhibitor, single point]
- Potency [13]: inconclusive: 29.9 µM [inhibitor, single point]
- max response [14]: inactive: -25.1%
- Potency [15]: inactive
- Potency [16]: inconclusive: 3.55 µM [rising, single point]
- Potency [17]: inconclusive: 39.8 µM [cytotoxic, single point]
- Potency [18]: inactive

SMILES: COC(=O)N1CC2(CC2)C[C@H](C(=O)NO)[C@H]1C(=O)N1CCN(c2ccccc2)CC1
- Potency [19]: inactive
- Potency [20]: inconclusive: 29 µM [inhibitor, single point]
- Potency [3]: inconclusive: 14.8 µM [inhibitor, partial curve]

SMILES: O=C1NCc2nc3ccccc3c(=O)n2C1Cc1c[nH]c2ccccc12 (stereo not given)
- Potency [1]: inactive
- max response [3]: inactive: -3.24%

SMILES: COc1cc(/C=C/C(=O)OC[C@H]2O[C@@H](OC3OC=C(C(=O)O)C4C(O)CC(C)(O)C34)[C@H](O)[C@@H](O)[C@@H]2O)cc(OC)c1O (stereo not given in full)
- Potency [21]: inconclusive: 3.16 µM [inhibitor, partial curve]
- max response [3]: inactive: -14.2%
